# Measurements as given in the supplement of paper PMC8728848.
# The other results are listed elsewhere or left out.
# Columns and labels:
# Assay in all cases: glycan array binding signal (z-score within array); higher = stronger binding
# Conditions in all cases: glycan notation: IUPAC condensed, linker removed
# Fuc(a1-2)Gal = molecular target: Fuc(a1-2)Gal
# In short: (§1)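 Glycan array data were curated from 3228 arrays in the Consortium for Functional Glycomics database and kept only where the protein sequence was available. Glycan names were converted to IUPAC-condensed notation, and columns mapping to the same glycan were averaged. The binding signal is a within-array Z-score, averaged across arrays of the same protein sequence at different concentrations or buffers and across linkers. Negative Z-scores can be read as non-binding.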
# Fuc(a1-2)Gal(b1-3)GalNAc = molecular target: Fuc(a1-2)Gal(b1-3)GalNAc
# In short: as §1
# [1] = molecular target: Fuc(a1-2)Gal(b1-3)GalNAc(a1-3)[Fuc(a1-2)]Gal(b1-4)Glc
# In short: as §1
# [2] = molecular target: Fuc(a1-2)Gal(b1-3)GalNAc(a1-3)[Fuc(a1-2)]Gal(b1-4)GlcNAc
# In short: as §1
# [3] = molecular target: Fuc(a1-2)Gal(b1-3)GalNAc(b1-3)Gal
# In short: as §1
# [4] = molecular target: Fuc(a1-2)Gal(b1-3)GalNAc(b1-3)Gal(a1-4)Gal(b1-4)Glc
# In short: as §1
# [5] = molecular target: Fuc(a1-2)Gal(b1-3)GalNAc(b1-4)[Neu5Ac(a2-3)]Gal(b1-4)Glc
# In short: as §1
# Fuc(a1-2)Gal(b1-3)GlcNAc = molecular target: Fuc(a1-2)Gal(b1-3)GlcNAc
# In short: as §1
# [6] = molecular target: Fuc(a1-2)Gal(b1-3)GlcNAc(b1-2)Man(a1-3)[Fuc(a1-2)Gal(b1-3)GlcNAc(b1-2)Man(a1-6)]Man(b1-4)GlcNAc(b1-4)GlcNAc
# In short: as §1
# [7] = molecular target: Fuc(a1-2)Gal(b1-3)GlcNAc(b1-2)Man(a1-3)[Fuc(a1-2)Gal(b1-3)GlcNAc(b1-2)Man(a1-6)]Man(b1-4)GlcNAc(b1-4)[Fuc(a1-6)]GlcNAc
# In short: as §1
# [8] = molecular target: Fuc(a1-2)Gal(b1-3)GlcNAc(b1-3)Gal(b1-4)Glc
# In short: as §1
# [9] = molecular target: Fuc(a1-2)Gal(b1-3)GlcNAc(b1-3)GalNAc
# In short: as §1
# [10] = molecular target: Fuc(a1-2)Gal(b1-3)GlcNAc(b1-3)[Fuc(a1-2)Gal(b1-3)GlcNAc(b1-6)]GalNAc
# In short: as §1
# [11] = molecular target: Fuc(a1-2)Gal(b1-3)GlcNAc(b1-3)[Gal(b1-4)GlcNAc(b1-6)]Gal(b1-4)Glc
# In short: as §1
# [12] = molecular target: Fuc(a1-2)Gal(b1-3)GlcNAc(b1-3)[Neu5Ac(a2-6)Gal(b1-4)GlcNAc(b1-6)]Gal(b1-4)Glc
# In short: as §1
# [13] = molecular target: Fuc(a1-2)Gal(b1-3)GlcNAc6S
# In short: as §1
# [14] = molecular target: Fuc(a1-2)Gal(b1-3)[Fuc(a1-4)]GlcNAc
# In short: as §1
# [15] = molecular target: Fuc(a1-2)Gal(b1-3)[Fuc(a1-4)]GlcNAc(b1-2)Man(a1-3)[Fuc(a1-2)Gal(b1-3)[Fuc(a1-4)]GlcNAc(b1-2)Man(a1-3)]Man(b1-4)GlcNAc(b1-4)GlcNAc
# In short: as §1
# [16] = molecular target: Fuc(a1-2)Gal(b1-3)[Fuc(a1-4)]GlcNAc(b1-2)Man(a1-3)[Fuc(a1-2)Gal(b1-3)[Fuc(a1-4)]GlcNAc(b1-2)Man(a1-6)]Man(b1-4)GlcNAc(b1-4)[Fuc(a1-6)]GlcNAc(b1-4)[Fuc(a1-6)]GlcNAc
# In short: as §1
# [17] = molecular target: Fuc(a1-2)Gal(b1-3)[Fuc(a1-4)]GlcNAc(b1-3)[Fuc(a1-3)[Gal(b1-4)]GlcNAc(b1-6)]Gal(b1-4)Glc
# In short: as §1
# [18] = molecular target: Fuc(a1-2)Gal(b1-3)[Fuc(a1-4)]GlcNAc(b1-3)[Gal(b1-4)GlcNAc(b1-6)]Gal(b1-4)Glc
# In short: as §1
# [19] = molecular target: Fuc(a1-2)Gal(b1-4)Fuc(a1-3)]GlcNAc(b1-2)Man(a1-3)[Fuc(a1-2)Gal(b1-4)[Fuc(a1-3)]GlcNAc(b1-2)Man(a1-6)]Man(b1-4)GlcNAc(b1-4)GlcNAc
# In short: as §1
# Fuc(a1-2)Gal(b1-4)Glc = molecular target: Fuc(a1-2)Gal(b1-4)Glc
# In short: as §1
# Fuc(a1-2)Gal(b1-4)Glc6S = molecular target: Fuc(a1-2)Gal(b1-4)Glc6S
# In short: as §1
# Fuc(a1-2)Gal(b1-4)GlcNAc = molecular target: Fuc(a1-2)Gal(b1-4)GlcNAc
# In short: as §1
# [20] = molecular target: Fuc(a1-2)Gal(b1-4)GlcNAc(b1-2)Man
# In short: as §1
# [21] = molecular target: Fuc(a1-2)Gal(b1-4)GlcNAc(b1-2)Man(a1-3)[Fuc(a1-2)Gal(b1-4)GlcNAc(b1-2)Man(a1-6)]Man(b1-4)GlcNAc(b1-4)GlcNAc
# In short: as §1
# [22] = molecular target: Fuc(a1-2)Gal(b1-4)GlcNAc(b1-2)Man(a1-3)[Fuc(a1-2)Gal(b1-4)GlcNAc(b1-2)Man(a1-6)]Man(b1-4)GlcNAc(b1-4)[Fuc(a1-6)]GlcNAc
# In short: as §1
# [23] = molecular target: Fuc(a1-2)Gal(b1-4)GlcNAc(b1-2)[Fuc(a1-2)Gal(b1-4)GlcNAc(b1-4)]Man(a1-3)[Fuc(a1-2)Gal(b1-4)GlcNAc(b1-2)Man(a1-6)]Man(b1-4)GlcNAc(b1-4)GlcNAc
# In short: as §1
# [24] = molecular target: Fuc(a1-2)Gal(b1-4)GlcNAc(b1-3)Gal(b1-4)GlcNAc
# In short: as §1
# [25] = molecular target: Fuc(a1-2)Gal(b1-4)GlcNAc(b1-3)Gal(b1-4)GlcNAc(b1-2)Man(a1-3)[Fuc(a1-2)Gal(b1-4)GlcNAc(b1-3)Gal(b1-4)GlcNAc(b1-2)Man(a1-6)]Man(b1-4)GlcNAc(b1-4)GlcNAc
# In short: as §1
# [26] = molecular target: Fuc(a1-2)Gal(b1-4)GlcNAc(b1-3)Gal(b1-4)GlcNAc(b1-3)Gal(b1-4)GlcNAc
# In short: as §1
# [27] = molecular target: Fuc(a1-2)Gal(b1-4)GlcNAc(b1-3)GalNAc
# In short: as §1
# [28] = molecular target: Fuc(a1-2)Gal(b1-4)GlcNAc(b1-3)[Fuc(a1-2)Gal(b1-4)GlcNAc(b1-6)]GalNAc
# In short: as §1
# [29] = molecular target: Fuc(a1-2)Gal(b1-4)GlcNAc(b1-3)[Fuc(a1-3)[Gal(b1-4)]GlcNAc(b1-6)]Gal(b1-4)Glc
# In short: as §1
# [30] = molecular target: Fuc(a1-2)Gal(b1-4)GlcNAc(b1-6)GalNAc
# In short: as §1
# [31] = molecular target: Fuc(a1-2)Gal(b1-4)GlcNAc6S
# In short: as §1
# [32] = molecular target: Fuc(a1-2)Gal(b1-4)[Fuc(a1-3)]GlcNAc
# In short: as §1
# [33] = molecular target: Fuc(a1-2)Gal(b1-4)[Fuc(a1-3)]GlcNAc(b1-2)Man(a1-3)[Fuc(a1-2)Gal(b1-4)[Fuc(a1-3)]GlcNAc(b1-2)Man(a1-6)]Man(b1-4)GlcNAc(b1-4)[Fuc(a1-6)]GlcNAc
# In short: as §1
# [34] = molecular target: Fuc(a1-2)Gal(b1-4)[Fuc(a1-3)]GlcNAc(b1-2)[Fuc(a1-2)Gal(b1-4)[Fuc(a1-3)]GlcNAc(b1-4)]Man(a1-3)[Fuc(a1-2)Gal(b1-4)[Fuc(a1-3)]GlcNAc(b1-2)Man(a1-6)]Man(b1-4)GlcNAc(b1-4)GlcNAc
# In short: as §1
# [35] = molecular target: Fuc(a1-2)Gal(b1-4)[Fuc(a1-3)]GlcNAc(b1-3)Gal(b1-4)[Fuc(a1-3)]GlcNAc
# In short: as §1
# [36] = molecular target: Fuc(a1-2)Gal(b1-4)[Fuc(a1-3)]GlcNAc(b1-3)Gal(b1-4)[Fuc(a1-3)]GlcNAc(b1-3)Gal(b1-4)[Fuc(a1-3)]GlcNAc
# In short: as §1
# [37] = molecular target: Fuc(a1-2)Gal(b1-4)[Fuc(a1-3)]GlcNAc(b1-3)GalNAc
# In short: as §1
# [38] = molecular target: Fuc(a1-2)Gal(b1-4)[Fuc(a1-3)]GlcNAc(b1-3)[Neu5Ac(a2-6)Gal(b1-4)GlcNAc(b1-6)]Gal(b1-4)Glc
# In short: as §1
# [39] = molecular target: Fuc(a1-2)Gal3S(b1-4)GlcNAc
# In short: as §1
binder,measurement,setting,value
APVPVTKLVCDGDTYKCTAYLDFGDGRWVAQWDTNVFHTG [PhoSpL (Pholiota squarrosa)],glycan array binding signal (z-score),Fuc(a1-2)Gal,0.241
same,glycan array binding signal (z-score),Fuc(a1-2)Gal(b1-3)GalNAc,-0.03
same,glycan array binding signal (z-score),[1],-0.555
same,glycan array binding signal (z-score),[2],-0.011
same,glycan array binding signal (z-score),[3],0.268
same,glycan array binding signal (z-score),[4],-0.073
same,glycan array binding signal (z-score),[5],0.105
same,glycan array binding signal (z-score),Fuc(a1-2)Gal(b1-3)GlcNAc,-0.281
same,glycan array binding signal (z-score),[6],0.376
same,glycan array binding signal (z-score),[7],1.1
same,glycan array binding signal (z-score),[8],-0.025
same,glycan array binding signal (z-score),[9],-0.435
same,glycan array binding signal (z-score),[10],-0.294
same,glycan array binding signal (z-score),[11],-0.38
same,glycan array binding signal (z-score),[12],-0.053
same,glycan array binding signal (z-score),[13],-0.511
same,glycan array binding signal (z-score),[14],0.022
same,glycan array binding signal (z-score),[15],0.363
same,glycan array binding signal (z-score),[16],0.334
same,glycan array binding signal (z-score),[17],-0.809
same,glycan array binding signal (z-score),[18],-0.343
same,glycan array binding signal (z-score),[19],-0.095
same,glycan array binding signal (z-score),Fuc(a1-2)Gal(b1-4)Glc,-0.576
same,glycan array binding signal (z-score),Fuc(a1-2)Gal(b1-4)Glc6S,-0.213
same,glycan array binding signal (z-score),Fuc(a1-2)Gal(b1-4)GlcNAc,-0.276
same,glycan array binding signal (z-score),[20],0.107
same,glycan array binding signal (z-score),[21],-0.525
same,glycan array binding signal (z-score),[22],1.39
same,glycan array binding signal (z-score),[23],-0.382
same,glycan array binding signal (z-score),[24],-0.302
same,glycan array binding signal (z-score),[25],-0.166
same,glycan array binding signal (z-score),[26],-0.199
same,glycan array binding signal (z-score),[27],0.002
same,glycan array binding signal (z-score),[28],-0.42
same,glycan array binding signal (z-score),[29],-0.059
same,glycan array binding signal (z-score),[30],-0.46
same,glycan array binding signal (z-score),[31],-0.693
same,glycan array binding signal (z-score),[32],-0.139
same,glycan array binding signal (z-score),[33],0.277
same,glycan array binding signal (z-score),[34],0.131
same,glycan array binding signal (z-score),[35],-0.192
same,glycan array binding signal (z-score),[36],-0.338
same,glycan array binding signal (z-score),[37],0.105
same,glycan array binding signal (z-score),[38],-0.307
same,glycan array binding signal (z-score),[39],0.013
